Test results taken from PMC9334288.
Numbering of substitutions follows the chain as printed. Results are given in words; binding and its absence hold for the method and conditions named. In cells and extracts the contact can be indirect. Some results given as binding are weak or reduced against the parent protein; the word gives no strength. Tags and fused reporters may be left off the sequences shown.

Sequences of proteins named here, by UniProt entry; tags and fusion partners are left off.
UniProt Q15796: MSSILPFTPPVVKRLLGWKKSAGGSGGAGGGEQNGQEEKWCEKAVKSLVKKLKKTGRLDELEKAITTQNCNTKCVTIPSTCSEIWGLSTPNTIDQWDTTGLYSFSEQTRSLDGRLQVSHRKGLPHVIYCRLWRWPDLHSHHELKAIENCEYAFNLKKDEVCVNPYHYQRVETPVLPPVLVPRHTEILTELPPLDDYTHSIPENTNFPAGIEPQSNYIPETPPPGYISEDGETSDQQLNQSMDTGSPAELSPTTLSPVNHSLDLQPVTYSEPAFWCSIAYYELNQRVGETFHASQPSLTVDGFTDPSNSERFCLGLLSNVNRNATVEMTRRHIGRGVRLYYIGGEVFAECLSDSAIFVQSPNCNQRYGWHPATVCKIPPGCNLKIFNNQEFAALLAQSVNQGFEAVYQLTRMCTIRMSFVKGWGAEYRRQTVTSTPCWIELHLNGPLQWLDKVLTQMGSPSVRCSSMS
UniProt Q13485: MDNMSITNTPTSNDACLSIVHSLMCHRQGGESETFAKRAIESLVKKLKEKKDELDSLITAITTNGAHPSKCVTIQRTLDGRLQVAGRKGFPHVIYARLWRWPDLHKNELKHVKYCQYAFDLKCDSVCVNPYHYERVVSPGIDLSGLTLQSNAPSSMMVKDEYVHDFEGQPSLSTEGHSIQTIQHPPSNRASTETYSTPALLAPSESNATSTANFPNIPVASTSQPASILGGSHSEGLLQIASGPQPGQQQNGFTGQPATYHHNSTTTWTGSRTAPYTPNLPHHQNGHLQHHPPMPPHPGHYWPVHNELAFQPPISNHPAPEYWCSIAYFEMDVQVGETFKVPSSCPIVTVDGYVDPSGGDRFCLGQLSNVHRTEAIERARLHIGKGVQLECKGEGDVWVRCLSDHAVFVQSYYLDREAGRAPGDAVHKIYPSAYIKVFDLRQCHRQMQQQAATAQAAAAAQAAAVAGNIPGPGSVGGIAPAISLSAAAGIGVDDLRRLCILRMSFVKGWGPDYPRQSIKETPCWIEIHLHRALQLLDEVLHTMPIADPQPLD
UniProt P84022: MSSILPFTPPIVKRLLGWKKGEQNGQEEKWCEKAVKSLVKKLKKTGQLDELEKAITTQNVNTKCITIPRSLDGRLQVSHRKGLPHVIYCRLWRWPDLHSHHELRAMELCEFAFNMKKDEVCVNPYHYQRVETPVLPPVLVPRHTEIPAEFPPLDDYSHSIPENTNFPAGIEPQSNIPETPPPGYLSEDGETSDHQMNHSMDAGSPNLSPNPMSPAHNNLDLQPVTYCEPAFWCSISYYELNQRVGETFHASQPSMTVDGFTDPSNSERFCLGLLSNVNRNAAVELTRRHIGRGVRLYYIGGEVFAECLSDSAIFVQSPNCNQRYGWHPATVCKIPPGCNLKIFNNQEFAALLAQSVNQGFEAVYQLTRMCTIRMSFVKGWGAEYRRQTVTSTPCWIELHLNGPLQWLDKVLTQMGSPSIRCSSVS

How the values were obtained:
[1] = target: T1, HA-tagged RGS6 (regulator of G-protein signaling 6), full length (human) (UniProt P49758); experiment: co-IP; A549 cells co-transfected with HA-tagged RGS6 and Flag-tagged SMAD3, with or without TGF-β (5 ng/ml) for 1 hour; immunoprecipitation with anti-HA antibody, blots for the indicated proteins
T1 sequence: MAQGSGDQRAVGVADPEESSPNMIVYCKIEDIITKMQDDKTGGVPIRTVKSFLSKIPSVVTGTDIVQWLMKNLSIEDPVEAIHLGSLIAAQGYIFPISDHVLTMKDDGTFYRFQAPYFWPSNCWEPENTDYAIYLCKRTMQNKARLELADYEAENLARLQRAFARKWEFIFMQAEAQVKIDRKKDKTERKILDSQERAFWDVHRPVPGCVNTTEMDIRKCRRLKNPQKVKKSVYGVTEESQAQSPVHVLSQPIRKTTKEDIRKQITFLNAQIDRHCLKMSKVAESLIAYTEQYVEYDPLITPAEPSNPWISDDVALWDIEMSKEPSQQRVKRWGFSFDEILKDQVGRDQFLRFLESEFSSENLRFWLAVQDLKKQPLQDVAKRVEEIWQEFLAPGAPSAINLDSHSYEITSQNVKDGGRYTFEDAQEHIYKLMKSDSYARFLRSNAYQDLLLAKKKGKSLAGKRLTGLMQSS

[2] = target: T1, HA-tagged RGS6 (regulator of G-protein signaling 6), full length (human); experiment: co-IP; 293T cells co-transfected with Flag-tagged SMAD4 and various HA-tagged RGS6 mutants; IP of lysates with anti-HA antibody
[3] = target: T2, HA-tagged RGS6(N401V), a GAP activity-deficient mutant (human) (UniProt P49758); experiment: as above
T2 sequence: T1 sequence with N401V

“SMAD2 in A549 cells (from UniProt Q15796 1-467)” was tested, and the binding [1] was “no binding”.

With “SMAD4 in A549 cells (from UniProt Q13485 1-552)” the binding [1] was “binds”.

“Flag-tagged SMAD3 (from UniProt P84022 1-425)” was tested, and the binding [1] was “no binding”.

With “Flag-tagged SMAD4 (from UniProt Q13485 1-552)” the binding [2] was “binds” and the binding [3] was “binds”.
